Biological target: T1, BCMA (the 'Antigen' of the SPR antigen binding assay) (human, UniProt Q02223 1-54, limits assumed)
T1 construct: also called human BCMA
T1 sequence (looked up): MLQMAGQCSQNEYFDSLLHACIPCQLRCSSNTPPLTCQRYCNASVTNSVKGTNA
Experiment: SPR, release and stability method, specific binding activity
Procedure: Antigen, FcγRIIIa, and FcRn specific binding activity of the purified DL variants was measured using SPR. Antigen, FcγRIIIa and FcRN analyses were performed using a release and stability surface plasmon resonance (SPR) method. The specific binding activities measured were between 80-110% for the purified DL variants. […] Despite the trend observed, the decrease in binding activity as a function of drug load is minimal and remains within specification acceptance criteria. It has been observed that as the DAR increases, there is no significant change in antigen FcγRIIIa binding by SPR and antibody-dependent cell-mediated cytotoxicity (ADCC) activity.

B1: purified DL6 drug-load variant of belantamab mafodotin (antibody, human IgG1, kappa)
heavy: QVQLVQSGAEVKKPGSSVKVSCKASGGTFSNYWMHWVRQAPGQGLEWMGATYRGHSDTYYNQKFKGRVTITADKSTSTAYMELSSLRSEDTAVYYCARGAIYDGYDVLDNWGQGTLVTVSS[… human IgG1 constant region …]
light: DIQMTQSPSSLSASVGDRVTITCSASQDISNYLNWYQQKPGKAPKLLIYYTSNLHSGVPSRFSGSGSGTDFTLTISSLQPEDFATYYCQQYRKLPWTFGQGTKLEIKRTVAAPSVFIFPPSDEQLKSGTASVVCLLNNFYPREAKVQWKVDNALQSGNSQESVTEQDSKDSTYSLSSTLTLSKADYEKHKVYACEVTHQGLSSPVTKSFNRGEC
modifications: mcMMAF on LC C214 of one of the two light chains (sequential numbering); mcMMAF on HC C230 and HC C233 of both heavy chains and on HC C224 of one heavy chain (sequential numbering)
notes: Antibody drug conjugate, drug load of six; also called DL6a
Antigen Binding (%) (specific binding activity): 89%
